Source: the supplement of paper PMC8728848
Some of the results follow.

Experiments:
Test in all cases: glycan array binding signal (z-score within array); higher = stronger binding
Details in all cases: glycan notation: IUPAC condensed, linker removed
Gal3S(b1-3)GlcNAc = molecular target: Gal3S(b1-3)GlcNAc
Procedure, shortened: (§1)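 Glycan array data came from 3228 arrays in the Consortium for Functional Glycomics database, and only arrays with an available protein sequence were kept. Glycan names were put into IUPAC-condensed notation, and columns mapping to the same glycan were averaged. The binding signal is a within-array Z-score, averaged across arrays of one protein sequence run at different concentrations or buffers and across linkers. A negative Z-score can be read as non-binding.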

[1] = molecular target: Gal3S(b1-3)[Fuc(a1-4)]GlcNAc
Procedure, shortened: as §1

Gal3S(b1-4)Glc = molecular target: Gal3S(b1-4)Glc
Procedure, shortened: as §1

Gal3S(b1-4)Glc6S = molecular target: Gal3S(b1-4)Glc6S
Procedure, shortened: as §1

Gal3S(b1-4)GlcNAc = molecular target: Gal3S(b1-4)GlcNAc
Procedure, shortened: as §1

Gal3S(b1-4)GlcNAc6S = molecular target: Gal3S(b1-4)GlcNAc6S
Procedure, shortened: as §1

[2] = molecular target: Gal3S(b1-4)[Fuc(a1-3)]Glc
Procedure, shortened: as §1

[3] = molecular target: Gal3S(b1-4)[Fuc(a1-3)]Glc6S
Procedure, shortened: as §1

[4] = molecular target: Gal3S(b1-4)[Fuc(a1-3)]GlcNAc
Procedure, shortened: as §1

[5] = molecular target: Gal3S(b1-4)[Fuc(a1-3)]GlcNAc6S
Procedure, shortened: as §1

Gal3S4S(b1-4)GlcNAc = molecular target: Gal3S4S(b1-4)GlcNAc
Procedure, shortened: as §1

Gal3S6S(b1-4)GlcNAc = molecular target: Gal3S6S(b1-4)GlcNAc
Procedure, shortened: as §1

Gal3S6S(b1-4)GlcNAc6S = molecular target: Gal3S6S(b1-4)GlcNAc6S
Procedure, shortened: as §1

Gal4S(b1-4)GlcNAc = molecular target: Gal4S(b1-4)GlcNAc
Procedure, shortened: as §1

Gal4S6S(b1-4)GlcNAc = molecular target: Gal4S6S(b1-4)GlcNAc
Procedure, shortened: as §1

Gal6P(b1-4)GlcNAc = molecular target: Gal6P(b1-4)GlcNAc
Procedure, shortened: as §1

Gal6S(b1-3)GlcNAc = molecular target: Gal6S(b1-3)GlcNAc
Procedure, shortened: as §1

Gal6S(b1-3)GlcNAc6S = molecular target: Gal6S(b1-3)GlcNAc6S
Procedure, shortened: as §1

Gal6S(b1-4)Glc = molecular target: Gal6S(b1-4)Glc
Procedure, shortened: as §1

Gal6S(b1-4)Glc6S = molecular target: Gal6S(b1-4)Glc6S
Procedure, shortened: as §1

Gal6S(b1-4)GlcNAc = molecular target: Gal6S(b1-4)GlcNAc
Procedure, shortened: as §1

Gal6S(b1-4)GlcNAc6S = molecular target: Gal6S(b1-4)GlcNAc6S
Procedure, shortened: as §1

GalNAc(a1-3)Gal = molecular target: GalNAc(a1-3)Gal
Procedure, shortened: as §1

GalNAc(a1-3)GalNAc = molecular target: GalNAc(a1-3)GalNAc
Procedure, shortened: as §1

[6] = molecular target: GalNAc(a1-3)GalNAc(a1-3)Gal(a1-4)Gal(b1-4)GlcNAc
Procedure, shortened: as §1

[7] = molecular target: GalNAc(a1-3)GalNAc(b1-3)Gal(a1-4)Gal(b1-4)Glc
Procedure, shortened: as §1

GalNAc(b1-3)Gal = molecular target: GalNAc(b1-3)Gal
Procedure, shortened: as §1

[8] = molecular target: GalNAc(b1-3)Gal(a1-4)Gal(b1-4)GlcNAc
Procedure, shortened: as §1

[9] = molecular target: GalNAc(b1-3)Gal(a1-4)Gal(b1-4)GlcNAc(b1-3)Gal(b1-4)Glc
Procedure, shortened: as §1

[10] = molecular target: GalNAc(b1-3)Gal(a1-6)Gal(b1-4)Glc
Procedure, shortened: as §1

GalNAc(b1-3)GalNAc = molecular target: GalNAc(b1-3)GalNAc
Procedure, shortened: as §1

GalNAc(b1-3)GlcNAc = molecular target: GalNAc(b1-3)GlcNAc
Procedure, shortened: as §1

GalNAc(b1-4)Gal(b1-4)Glc = molecular target: GalNAc(b1-4)Gal(b1-4)Glc
Procedure, shortened: as §1

GalNAc(b1-4)GlcNAc = molecular target: GalNAc(b1-4)GlcNAc
Procedure, shortened: as §1

[11] = molecular target: GalNAc(b1-4)GlcNAc(b1-2)Man
Procedure, shortened: as §1

[12] = molecular target: GalNAc(b1-4)GlcNAc(b1-2)Man(a1-3)[GalNAc(b1-4)GlcNAc(b1-2)Man(a1-6)]Man(b1-4)GlcNAc(b1-4)GlcNAc
Procedure, shortened: as §1

[13] = molecular target: GalNAc(b1-4)GlcNAc(b1-3)GalNAc(b1-4)GlcNAc
Procedure, shortened: as §1

GalNAc(b1-4)GlcNAc6S = molecular target: GalNAc(b1-4)GlcNAc6S
Procedure, shortened: as §1

GalNAc(b1-6)GalNAc = molecular target: GalNAc(b1-6)GalNAc
Procedure, shortened: as §1

GalNAc3S(b1-4)GlcNAc = molecular target: GalNAc3S(b1-4)GlcNAc
Procedure, shortened: as §1

GalNAc3S(b1-4)GlcNAc3S = molecular target: GalNAc3S(b1-4)GlcNAc3S
Procedure, shortened: as §1

[14] = molecular target: GalNAc3S(b1-4)[Fuc(a1-3)]GlcNAc
Procedure, shortened: as §1

GalNAc4S6S(b1-4)GlcNAc = molecular target: GalNAc4S6S(b1-4)GlcNAc
Procedure, shortened: as §1

GalNAc6S(b1-4)GlcNAc = molecular target: GalNAc6S(b1-4)GlcNAc
Procedure, shortened: as §1

Glc(a1-4)Glc = molecular target: Glc(a1-4)Glc
Procedure, shortened: as §1

B1: HPA (Helix pomatia), Q2F1K8 (protein)
chain: MQAFYSGLLLLCVVAFAAAQRVQSGKIDCGNDAGWAKVPSDDPGRDNTRELAKNITFASPYCRPPVVLLSITQLDVEQSQNLRVIARLYSVSPTGFKASCYTWHNTKVYSMSISWISIENY
glycan array binding signal (z-score) (Gal3S(b1-3)GlcNAc): -0.264 | glycan array binding signal (z-score) [1]: -0.189 | glycan array binding signal (z-score) (Gal3S(b1-4)Glc): -0.285 | glycan array binding signal (z-score) (Gal3S(b1-4)Glc6S): -0.305 | glycan array binding signal (z-score) (Gal3S(b1-4)GlcNAc): -0.267 | glycan array binding signal (z-score) (Gal3S(b1-4)GlcNAc6S): -0.75 | glycan array binding signal (z-score) [2]: -0.697 | glycan array binding signal (z-score) [3]: 0.222 | glycan array binding signal (z-score) [4]: -0.246 | glycan array binding signal (z-score) [5]: -0.246 | glycan array binding signal (z-score) (Gal3S4S(b1-4)GlcNAc): -0.243 | glycan array binding signal (z-score) (Gal3S6S(b1-4)GlcNAc): -0.098 | glycan array binding signal (z-score) (Gal3S6S(b1-4)GlcNAc6S): -0.136 | glycan array binding signal (z-score) (Gal4S(b1-4)GlcNAc): -0.282 | glycan array binding signal (z-score) (Gal4S6S(b1-4)GlcNAc): -0.142 | glycan array binding signal (z-score) (Gal6P(b1-4)GlcNAc): -0.422 | glycan array binding signal (z-score) (Gal6S(b1-3)GlcNAc): -0.498 | glycan array binding signal (z-score) (Gal6S(b1-3)GlcNAc6S): -0.301 | glycan array binding signal (z-score) (Gal6S(b1-4)Glc): -0.219 | glycan array binding signal (z-score) (Gal6S(b1-4)Glc6S): -0.345 | glycan array binding signal (z-score) (Gal6S(b1-4)GlcNAc): -0.261 | glycan array binding signal (z-score) (Gal6S(b1-4)GlcNAc6S): -0.503 | glycan array binding signal (z-score) (GalNAc(a1-3)Gal): 2.85 | glycan array binding signal (z-score) (GalNAc(a1-3)GalNAc): 3.28 | glycan array binding signal (z-score) [6]: 3.71 | glycan array binding signal (z-score) [7]: 7.34 | glycan array binding signal (z-score) (GalNAc(b1-3)Gal): -0.206 | glycan array binding signal (z-score) [8]: -0.169 | glycan array binding signal (z-score) [9]: -0.126 | glycan array binding signal (z-score) [10]: -0.138 | glycan array binding signal (z-score) (GalNAc(b1-3)GalNAc): 0.839 | glycan array binding signal (z-score) (GalNAc(b1-3)GlcNAc): -0.402 | glycan array binding signal (z-score) (GalNAc(b1-4)Gal(b1-4)Glc): -0.278 | glycan array binding signal (z-score) (GalNAc(b1-4)GlcNAc): -0.188 | glycan array binding signal (z-score) [11]: -0.286 | glycan array binding signal (z-score) [12]: 1.57 | glycan array binding signal (z-score) [13]: -0.371 | glycan array binding signal (z-score) (GalNAc(b1-4)GlcNAc6S): -0.346 | glycan array binding signal (z-score) (GalNAc(b1-6)GalNAc): -0.374 | glycan array binding signal (z-score) (GalNAc3S(b1-4)GlcNAc): -0.366 | glycan array binding signal (z-score) (GalNAc3S(b1-4)GlcNAc3S): -0.403 | glycan array binding signal (z-score) [14]: -0.287 | glycan array binding signal (z-score) (GalNAc4S6S(b1-4)GlcNAc): -0.399 | glycan array binding signal (z-score) (GalNAc6S(b1-4)GlcNAc): -0.44 | glycan array binding signal (z-score) (Glc(a1-4)Glc): -0.227
